Test results taken from US20240009173A1, “Use of 5-HT3-Targeting Drugs for Treatment of Acute Kidney Injury” (priority 2020, published 2024).

How the values were obtained:
AKI patients in ICU [1] = test: Logistic regression of in-ICU mortality of AKI patients (Example 2, Table 8); format: in vivo, human; conditions: ICU mortality of patients with AKI, negative = decreased mortality
AKI patients in ICU [2] = conditions: slope of serum creatinine changes
AKI patients in ICU [3] = test: Validation in eICU database: propensity score matching on APS, chi-square test of ICU death rate (Example 1); format: in vivo, human
[4] = after PSM, 3,848 patients in group

NS(=O)(=O)c1cc(C(=O)O)c(NCc2ccco2)cc1Cl [Furosemide]
Estimate (regression coefficient) (AKI patients in ICU [1]): decrease the ICU mortality of AKI patients

Cc1nccn1CC1CCc2c(c3ccccc3n2C)C1=O (stereo not drawn) [Ondansetron]
time of maximum capability of decreasing creatinine level after administration (AKI patients in ICU [2]): 2.5 to 4 h
Alive (patients) (AKI patients in ICU [3]; [4]): 3,369
Death (patients) (AKI patients in ICU [3]; [4]): 479
death rate (AKI patients in ICU [3]; after baseline APS adjustment by PSM, 3,848 patients per group): 12.45%

O=C(CCCN1CCC(O)(c2ccc(Cl)cc2)CC1)c1ccc(F)cc1 [Haloperidol]
Estimate (regression coefficient) (AKI patients in ICU [1]): decrease the ICU mortality of AKI patients

CC(=O)Oc1ccccc1C(=O)O [Aspirin]
effect on creatinine levels (AKI patients in ICU [2]): no effect

COCCc1ccc(OCC(O)CNC(C)C)cc1 (stereo not drawn) [Metoprolol]
Estimate (regression coefficient) (AKI patients in ICU [1]): decrease the ICU mortality of AKI patients

NCCCC[C@H](N[C@@H](CCc1ccccc1)C(=O)O)C(=O)N1CCC[C@H]1C(=O)O [Lisinopril]
Estimate (regression coefficient) (AKI patients in ICU [1]): decrease the ICU mortality of AKI patients
